Data taken from PMC4336329 (PLoS ONE, 2015).
Out of some 310,000 compounds screened, about 2,200 (0.71%) showed an effect of 50% or more. The effect is printed as a negative number. This is one part of the list.

Target: human ether-à-go-go-related gene (hERG) potassium channel (human, UniProt Q12809)
Experiment: primary screen, population patch clamp on CHO cells stably expressing hERG

Chain of human ether-à-go-go-related gene (hERG) potassium channel (Q12809 whole entry, looked up): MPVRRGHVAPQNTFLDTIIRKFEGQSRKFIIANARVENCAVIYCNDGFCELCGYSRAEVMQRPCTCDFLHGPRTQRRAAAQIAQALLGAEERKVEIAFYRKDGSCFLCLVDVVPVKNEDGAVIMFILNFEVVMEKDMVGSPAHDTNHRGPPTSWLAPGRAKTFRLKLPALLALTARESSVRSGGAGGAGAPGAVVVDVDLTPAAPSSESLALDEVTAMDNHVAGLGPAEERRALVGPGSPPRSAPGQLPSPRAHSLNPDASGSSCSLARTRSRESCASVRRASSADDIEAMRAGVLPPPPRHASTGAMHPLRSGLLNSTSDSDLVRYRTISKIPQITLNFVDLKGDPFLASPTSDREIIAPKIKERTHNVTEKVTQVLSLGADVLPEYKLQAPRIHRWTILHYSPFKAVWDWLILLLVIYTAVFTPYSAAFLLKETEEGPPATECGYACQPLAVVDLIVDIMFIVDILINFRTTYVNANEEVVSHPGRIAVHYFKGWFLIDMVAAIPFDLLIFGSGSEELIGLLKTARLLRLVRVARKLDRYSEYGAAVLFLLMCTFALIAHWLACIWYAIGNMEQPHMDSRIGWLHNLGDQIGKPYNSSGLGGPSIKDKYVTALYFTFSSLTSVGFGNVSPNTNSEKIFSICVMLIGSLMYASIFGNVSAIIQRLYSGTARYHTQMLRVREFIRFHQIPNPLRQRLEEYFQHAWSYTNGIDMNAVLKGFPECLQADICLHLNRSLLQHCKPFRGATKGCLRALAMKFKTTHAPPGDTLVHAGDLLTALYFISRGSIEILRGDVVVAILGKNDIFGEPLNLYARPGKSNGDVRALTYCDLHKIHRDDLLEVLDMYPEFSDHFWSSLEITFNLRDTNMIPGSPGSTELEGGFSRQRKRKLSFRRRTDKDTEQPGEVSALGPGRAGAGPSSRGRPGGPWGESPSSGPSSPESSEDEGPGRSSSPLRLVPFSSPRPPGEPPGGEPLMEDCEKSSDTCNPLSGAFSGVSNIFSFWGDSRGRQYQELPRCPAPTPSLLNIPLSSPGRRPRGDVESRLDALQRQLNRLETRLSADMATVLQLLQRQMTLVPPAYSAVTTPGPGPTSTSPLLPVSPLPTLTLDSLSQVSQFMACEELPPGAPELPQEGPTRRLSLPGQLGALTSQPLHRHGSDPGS

Compound	hERG current change (%, negative = inhibition) at 1uM
O=C(CC1CCCCC1)Nc1ncn[nH]1	8.98%
CC1CN(C(=O)COC(=O)c2cc([N+](=O)[O-])ccc2Cl)CC(C)O1 (centres unmarked)	9.39%
COc1ccc(C(=O)O)cc1S(=O)(=O)Nc1ccc(Oc2ccccc2)cc1	5.45%
CCN(c1ccc(NC(=O)COC(=O)c2cccs2)cc1)C(C)C	9.23%
CN(c1ccccc1)S(=O)(=O)c1cccc(NC(=O)c2cncc(Br)c2)c1	-3.27%
COc1ccc(NCc2nnc(SCC(=O)Nc3ccccc3)n2C)cc1	0.431%
O=c1c(-c2ccccc2)nnc2sc(COc3ccc(Br)cc3)nn12	14.6%
CCOc1ccccc1CN1CCC(CO)(CCOc2ccccc2)CC1	-66.8%
COc1cccc(C(=O)CN(C(=O)c2ccc(Cl)cc2Cl)N2C(=O)c3ccccc3C2=O)c1	8.71%
Cc1ccc(N(CC(=O)NCCc2ccccc2)C(=O)CCC(=O)Nc2cc(C)ccn2)cc1	13.2%
CC1=C(C(=O)OCCc2ccccc2)C(c2ccsc2)NC(=O)N1C (centres unmarked)	11.1%
CCCCOC(=O)CSCC(=O)Nc1cc(C)on1	11.5%
CC(C)(C)NC(=O)C(=O)NNC(=O)c1cccc([N+](=O)[O-])c1	11.9%
Cc1cc(C(=O)OCC(=O)N2CCc3ccccc32)c(C)o1	12.3%
CCOCCn1ccc2c(OCC(=O)NCCc3ccc(OC)c(OC)c3)cccc2c1=O	3.28%
COC(=O)c1c(C)c(OC(=O)c2c(C)cc(O)c(C=O)c2O)cc(C)c1O	18.3%
CC(=NCc1cccnc1)c1c(O)n(C2CCCCC2)c(=O)[nH]c1=O	0.173%
CC(=O)c1ccc(Oc2cc(C(F)(F)F)cnc2C(N)=O)cc1	13.2%
S=c1[nH]nc(COc2ccccc2)n1/N=C/c1ccc(Br)s1	-9.79%

Compound	hERG current change (%, negative = inhibition) at 1uM
CCS(=O)(=O)c1nc(S(=O)(=O)c2ccc(C)cc2)c(NCc2ccccn2)s1	6.35%
CCOC(=O)C1=C(C)N=c2s/c(=C\c3ccc(OCC(=O)O)cc3)c(=O)n2C1c1ccc(OC(C)C)cc1 (centres unmarked)	4.65%
CCN(Cc1ccccc1)S(=O)(=O)c1ccc2c(c1)NC(=O)CC(=O)N2	-10.3%
O=C(NCc1cccnc1)c1cc(Sc2cccc(Cl)c2)nc2ccccc12	3.15%
O=C(CSC1=NCCS1)N1CCOCC1	5.97%
Nc1cc(=O)[nH]c(=O)n1CCc1ccccc1	16.3%
C=CCNC(=O)COC(=O)CNC(=O)c1cc(Cl)cc([N+](=O)[O-])c1	3.83%
COc1ccccc1C(=O)N(Cc1ccc(C)o1)C1CCS(=O)(=O)C1 (centres unmarked)	-4.14%
O=C(CNCc1ccccc1)Nc1cccc(Cl)c1Cl.O=C(O)C(=O)O	16.5%
Cc1nnc(NC(=O)Cn2c(=O)sc3ccccc32)s1	11.9%
CCC(C)NC(=O)C1CCCN(S(=O)(=O)c2ccc3c(c2)CC(C)N3C(=O)C2CC2)C1 (centres unmarked)	8.11%
CCCCOC(=O)c1ccc(N2C(=O)CC(N3CCN(C/C=C/c4ccccc4)CC3)C2=O)cc1 (centres unmarked)	-5.33%
O=C(N/N=C/c1ccc(O)c([N+](=O)[O-])c1)C1CC1(c1ccccc1)c1ccccc1 (centres unmarked)	-9.01%
Cc1cccc(NC(=O)C2CCN(C(=O)NC3CCCCC3)CC2)c1	12.7%
CCOC(=O)N1CCN(CC(=O)Nc2c(C(=O)OC)[nH]c3ccc(Cl)cc23)CC1	-13.9%
O=C1c2ccccc2C(Nc2ccc(F)c(Cl)c2)N1c1ccccn1 (centres unmarked)	17.9%
Cc1ccc2[nH]c(=O)c(CN(Cc3cccs3)C(=S)NCc3ccco3)cc2c1	1.14%
CN(c1ccccc1C(=O)Nc1ccc(F)c(Cl)c1)S(C)(=O)=O	6.03%
O=[N+]([O-])c1ccc(Cl)cc1N/N=C/c1ccncc1	11.3%

Compound	hERG current change (%, negative = inhibition) at 1uM
CCn1cc(S(=O)(=O)Nc2cc(C(=O)OC)ccc2C)cn1	-1.09%
C/C(=N\NC(=S)NC1CCCCC1)c1cccc(C(F)(F)F)c1	14.3%
O=C(Nc1nc(=S)ss1)c1c(F)cccc1F	10.4%
Cc1cc(=O)oc2cc(OCC(=O)OCC(=O)N(C)C3CCS(=O)(=O)C3)ccc12 (centres unmarked)	6.15%
Cc1ccc(C2C(C#N)=C(N)N(c3cccnc3)C3=C2C(=O)CCC3)c(C)c1 (centres unmarked)	7.23%
CC1CCCC(NC(=O)C2CCCN2S(=O)(=O)c2cccc3nsnc23)C1C (centres unmarked)	7.42%
COc1ccc2cc(C(N)=O)/c(=N/NC(=O)c3ccco3)oc2c1	2.5%
CCOc1ccc(/C=N/n2c(C3CCCCC3)n[nH]c2=S)cc1	13.8%
Cc1cc(=O)n2c(-c3ccc(Cl)cc3)csc2n1	9.2%
Cc1cccc(NC(=O)c2cc(S(=O)(=O)c3ccccc3)ccc2Cl)c1	-1.59%
Cn1nnnc1SCC(=O)N(C1CCCCC1)C1CCCCC1	7.38%
C=C(C)Cn1c(=O)c2c(nc3n2CCN3c2cccc(Cl)c2C)n(C)c1=O	14.8%
O=C(NCCc1ccco1)C(=O)NCC1OCCCN1S(=O)(=O)c1ccc(Cl)cc1 (centres unmarked)	13.5%
CCOCc1nnc(NC(=O)c2ccc(OC)cc2)s1	13.9%
CNc1ccccc1C(=O)OC(C)C(=O)Nc1ccc(S(=O)(=O)N2CCCC2)cc1 (centres unmarked)	11.2%
Cc1cccc(N2C(=O)c3cccc4c(N(C)CCO)ccc(c34)C2=O)c1	-3.41%
CCc1nc(SCc2ccccc2C#N)n[nH]1	15.7%
O=C(COC(=O)c1cccc(S(=O)(=O)N2CCOCC2)c1)c1ccccc1	20.3%
